Source: article PMC4336329 (PLoS ONE, 2015)
The whole screen tested about 310,000 compounds, of which about 14,000 (4.5%) showed an effect of 50% or more. Effects have a minus sign here. The list shows a part of the results.

Biological target: human ether-à-go-go-related gene (hERG) potassium channel (human, UniProt Q12809)
Assay: primary screen, population patch clamp on CHO cells stably expressing hERG
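Also: peak tail current of the secondary pulse compared with the same well before compound.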

Sequence of human ether-à-go-go-related gene (hERG) potassium channel (Q12809 whole entry, looked up): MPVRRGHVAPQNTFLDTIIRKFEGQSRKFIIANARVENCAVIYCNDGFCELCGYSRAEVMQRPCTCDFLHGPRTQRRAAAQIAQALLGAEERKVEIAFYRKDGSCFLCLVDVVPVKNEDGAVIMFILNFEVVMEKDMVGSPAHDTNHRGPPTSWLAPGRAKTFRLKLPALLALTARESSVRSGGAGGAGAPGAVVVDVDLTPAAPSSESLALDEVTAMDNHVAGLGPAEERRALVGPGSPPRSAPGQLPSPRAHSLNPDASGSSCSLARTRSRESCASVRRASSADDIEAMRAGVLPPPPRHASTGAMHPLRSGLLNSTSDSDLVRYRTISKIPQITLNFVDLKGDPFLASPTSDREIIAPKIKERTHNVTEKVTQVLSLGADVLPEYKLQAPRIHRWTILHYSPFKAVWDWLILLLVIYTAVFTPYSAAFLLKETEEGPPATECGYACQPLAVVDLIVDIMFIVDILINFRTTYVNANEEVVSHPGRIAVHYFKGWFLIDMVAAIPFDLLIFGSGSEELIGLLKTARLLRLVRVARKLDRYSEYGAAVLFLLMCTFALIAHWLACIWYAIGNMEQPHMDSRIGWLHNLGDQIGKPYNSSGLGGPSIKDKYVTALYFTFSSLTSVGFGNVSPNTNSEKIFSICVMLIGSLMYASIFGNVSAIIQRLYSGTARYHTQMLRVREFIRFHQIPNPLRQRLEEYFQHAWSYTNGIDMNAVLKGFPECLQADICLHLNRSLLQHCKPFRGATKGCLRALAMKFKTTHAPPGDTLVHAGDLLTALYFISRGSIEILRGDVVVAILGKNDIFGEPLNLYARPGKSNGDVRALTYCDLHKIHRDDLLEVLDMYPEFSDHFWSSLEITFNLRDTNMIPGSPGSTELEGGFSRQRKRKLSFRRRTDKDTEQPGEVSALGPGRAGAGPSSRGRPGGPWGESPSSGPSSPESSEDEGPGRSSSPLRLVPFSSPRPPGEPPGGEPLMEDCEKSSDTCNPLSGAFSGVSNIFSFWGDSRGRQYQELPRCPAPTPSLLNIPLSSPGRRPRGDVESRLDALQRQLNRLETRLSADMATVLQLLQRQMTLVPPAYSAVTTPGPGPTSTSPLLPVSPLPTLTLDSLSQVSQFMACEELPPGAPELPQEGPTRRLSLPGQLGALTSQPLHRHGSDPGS

SMILES | hERG current change (%, negative = inhibition) at 10uM [%]
CC(C)c1ccc(NC(=O)CCCN2C(=S)NC(C)(C)CC2C)cc1 (centres unmarked) | -8.19
CN(C)C(CNC(=O)CCc1nc2ccccc2s1)c1ccccc1 (centres unmarked) | 0.219
Cc1ccc(S(=O)(=O)N2CC(O)CC2C(=O)NCc2ccc3c(c2)OCO3)cc1 (centres unmarked) | 2.29
CN(c1ccccc1)S(=O)(=O)c1ccc(Cl)c(C(=O)NC2=NCCS2)c1 | 9.14
Cc1ccccc1NC(=O)Cc1nc(CSc2nnc(-c3ccc4c(c3)OCO4)o2)cs1 | 2.41
CCS(=O)(=O)N1CCC(C(=O)NCc2cccs2)CC1 | 6.06
Cc1cc2c(c(=O)n1Cc1ccccn1)C(C(C)C)C(C#N)=C(N)O2 (centres unmarked) | -0.366
O=[N+]([O-])NC1=NCN(Cc2ccco2)CN1Cc1ccco1 | 5.47
O=C(O)CCC(=O)N1CCc2cc(S(=O)(=O)NC3CCCC3)ccc21 | 8.88
c1ccc2c(c1)OCCc1c-2[nH]c2ccccc12 | 7.5
O=C(Nc1cccc(S(=O)(=O)N2CCOCC2)c1)c1ccccc1[N+](=O)[O-] | 0.195
O=C(Nc1ncc2c(n1)CC(c1ccco1)CC2=O)c1ccccc1 (centres unmarked) | -7.67
O=C(O)c1cc(Cl)c(Cl)cc1C(=O)N(Cc1ccccc1)Cc1ccccc1 | 13.7
CCc1ccc2[nH]c(=O)c(CN(Cc3ccc(F)cc3)C(c3nnnn3CCN3CCOCC3)C(C)C)cc2c1 (centres unmarked) | -18.4
COc1ccc(-n2nc(C)cc2Nc2ccccc2C(=O)O)cc1 | 13.6
CCCOc1ccccc1C(=O)N(Cc1ccco1)C1CCS(=O)(=O)C1 (centres unmarked) | -0.904
CC(=O)Nc1ccccc1OC(C)C(=O)NC(C)c1ccc(F)cc1 (centres unmarked) | 3.19
O=C(N/C(=C\c1ccco1)C(=O)N1CCOCC1)c1ccc([N+](=O)[O-])cc1 | -70.8
Cl.c1ccc2c(c1)c1c3n2CCNC3CCC1 (centres unmarked) | -6.36
C=CCn1c(SCC(=O)N2CCc3ccccc3C2)nnc1-c1ccncc1 | -15.6
COc1ccc(CC(=O)OC(C)CN2CCCC2)cc1.Cl (centres unmarked) | 6.46
Cc1cc(O)c(-c2cc(C(=O)NCc3ccc4c(c3)OCO4)[nH]n2)cc1C | -1.08

SMILES | hERG current change (%, negative = inhibition) at 10uM [%]
C=CCOn1c(C)c(C(C)=O)c2c3no[n+]([O-])c3ccc21 | -14.5
Nc1ccc(S(=O)(=O)N2CC3CC(C2)c2cccc(=O)n2C3)cc1 (centres unmarked) | 1.73
C=CCn1c(O)c(C(C)=NCCCO)c(=O)[nH]c1=O | 3.31
CCC(C(=O)NC(C)(C)C)N(C(=O)Cn1nnc(-c2ccccc2F)n1)c1cccc2c1CCCC2 (centres unmarked) | -2.91
COc1ccc(OC)c(NC(=O)CN2C(=O)c3ccccc3S2(=O)=O)c1 | 2.94
Br.Cc1cc(C)nc(SCc2csc(-c3ccccc3)n2)n1 | -4.42
CCC(CC)C(=O)Nc1c2c(nn1-c1ccc(C)cc1)CS(=O)(=O)C2 | 5.3
CC(C)C[C@@H](CSc1ccccc1)N1CCN(CC(C)C)CCC1=O | -75
CCOC(=O)N1CCC(N2CCCC(C(=O)c3cccc(OC)c3)C2)CC1 (centres unmarked) | -64.8
Cc1nc(SCC(=O)Nc2ccc(F)cc2)c2oc3ccccc3c2n1 | 13.5
Cc1ccc(C)c(NC(=S)NNC(=O)c2cc3c(s2)CCC(C)C3)c1 (centres unmarked) | 16.6
CCC1CCCCN1CCCNC(=O)Cn1ncc2c([nH]c3ccc(C)cc32)c1=O (centres unmarked) | -6.66
CC(C)(CNC(=O)c1ccc(S(=O)(=O)Nc2ccccc2F)cc1)N1CCOCC1 | 1.67
CCCCn1c(N)c(N(CCOC)C(=O)c2ccc3c(c2)C(=O)N(c2cc(C)ccc2C)C3=O)c(=O)[nH]c1=O | -9.32
COc1ccccc1NC(=O)C(C)OC(=O)CCNS(=O)(=O)c1ccc(C)c(C)c1 (centres unmarked) | -18.7
Cc1ccc(/C=C(\NC(=O)c2ccccc2)C(=O)N2CCCCC2)cc1 | -12
Cc1cc2oc(=O)cc(CN3CCOCC3)c2cc1C | -5.87
CCN(CC)S(=O)(=O)c1ccc(C(=O)Nn2cnnc2)cc1 | 14.4
O=C1CC(c2ccc(O)c(O)c2)Oc2cc(O)cc(O)c21 (centres unmarked) | 3.64
C/C(=N\NC(=O)c1nnn(-c2nonc2N)c1-c1ccc2c(c1)OCO2)c1ccc(F)cc1 | 23
CCN(CC)c1ccc(NC(=O)CN2C(=O)CSc3ncccc32)c(C)c1 | -5.51
Cc1ccc(Nc2nc(-c3sc(C)nc3C)cs2)cc1 | 14
